Sequences and labels used below:
B1: chr4:25749455:25749456:-_ENSG00000091490_ENST00000264868|hu_hu|hu_hu_hu_mus_False|8_18 (ssRNA)
RNA: GGGAGUUCUACAGUCCGACGAUCGCACUAUGACCUCUAGAAAAAUCCACAGGGGGAAAAAAUGUAAACCAAUGUACAAUGUUAUCGCCUUCCCUGUGUGUGGAGUGUUUGUCUCAAUAUUUCAAGGUGCCUUAUAAUUUGGGACAACAGAGGAUUGAGCAUCA
B2: chr3:138219032:138219033:+_ENSMUSG00000028156_ENSMUST00000029803|mus_mus|FALSE|FALSE (ssRNA)
RNA: GGGAGUUCUACAGUCCGACGAUCUGUUACACGAGGAAAAAAACAAAAGCAAAACAAAUGAAAAACUGAAAUCAGAAUCACUAAUGUUAUCAAGGAGGGAAGCAAAUAAAUUAAAUCUAGCAGCCAUCAGCAAGAGGACAGCAACAACAGAGGAUUGAGCAUCA
B3: chr4:140556289:140556290:+_ENSMUSG00000036622_ENSMUST00000037055|mus_mus|mus_mus_mus_hu_False|38_58 (ssRNA)
RNA: GGGAGUUCUACAGUCCGACGAUCGAUGGAGCUCACCAGGCCCCCUUUUGCCGUGCAGAACCCUGUGCGGGUCACCACUGCUAGCACGUGCGGUCCCACGUAGGCUCGGGCCUGCAAGAUGAGGGUCCCGCAGAAGAGUGUGUGCAACAGAGGAUUGAGCAUCA
B4: chr1:21069516:21069517:-_ENSG00000127483_ENST00000312239|hu_hu|motif|central (ssRNA)
RNA: GGGAGUUCUACAGUCCGACGAUCUUAAAAUGUCAAGUGCCACAGGGAAGAGAAAUGAUAACCAGAAAUUUGUAUUUCGGGCGGGUACUAUUUAACACAACUUCACAAUACUAAAACAAAUACAAAUAAGAAAGGGUUAGGUAGCAACAGAGGAUUGAGCAUCA
B5: chr10:10886374:10886375:+_ENSMUSG00000090112_ENSMUST00000044053|mus_hu|motif|central (ssRNA)
RNA: GGGAGUUCUACAGUCCGACGAUCAUGUGGGAUAUCGACAUAAUUUAAUUCUGAACGCAGUACAUCAUAGGUAAUGAUAACGGUAUCCUGUUCUGCCAAAAAAUGAGGUUGUAAAAAGCCAUCUUUCUUCACUCCUUGAUAUACCAACAGAGGAUUGAGCAUCA
B6: chr1:46067948:46067949:+_ENSG00000132780_ENST00000351223|hu_hu|motif|central (ssRNA)
RNA: GGGAGUUCUACAGUCCGACGAUCUUCCUGGAAUGCAUUGACAGCUGCUGGAAUAUCCCCCAUCACCAGAUGUUUCUGUCCGGAACCCAAUAGUUUCUUAGCUUCACUAUCCACAUCCAGACUCUCCACUUUAUCUGCAGAUGUCAACAGAGGAUUGAGCAUCA
B7: chr4:56291666:56291667:+_ENSG00000134851_ENST00000381334|hu_hu|FALSE|FALSE (ssRNA)
RNA: GGGAGUUCUACAGUCCGACGAUCACAGUAUUUUUCCAUCACUUUUAGUUGUAAUGUACACUAUGUACAGAAAGAUAAUACUACCUAUUUUAAACUAAAUAUAGAUGAACAAACAGCUUGUUAAAAACCAGAAUCAGGGCUUAUCAACAGAGGAUUGAGCAUCA
B8: chr4:138660994:138660995:-_ENSMUSG00000050608_ENSMUST00000143971|mus_mus|FALSE|FALSE (ssRNA)
RNA: GGGAGUUCUACAGUCCGACGAUCAAAGUCAUGCUGACAGUUGGAGUAGGCCAUUCCCAAUCCCACGCCAGAACCAAAGGCUAAUGGCCACAUUCUUCUCUUAAAGAAGGUGAGGGAGAAAACAAUUCCUAAUCCAAACCCAGUCAACAGAGGAUUGAGCAUCA
B9: chr2:216225781:216225782:-_ENSG00000115414_ENST00000323926|hu_hu|FALSE|FALSE (ssRNA)
RNA: GGGAGUUCUACAGUCCGACGAUCAAAUACUGGGAAAAAUUGAUAAAUAACAGGUAAGAGAAAGAUAUUUCUAGGCAAUUACUAGGAUCAUUUGGAAAAAGUGAGUACUGUGGAUAUUUAAAAUAUCACAGUAACAAGAUCAUGCAACAGAGGAUUGAGCAUCA
B10: chr8:117878989:117878990:-_ENSG00000164754_ENST00000297338|hu_hu|hu_hu_hu_mus_True|8_48 (ssRNA)
RNA: GGGAGUUCUACAGUCCGACGAUCCCAGAGGCCCUCGUUUACUGAGGACAAAAUGUGCGUAGAACAUUUUUCUUAUUUGCUAUGAAAACAGAAGAAACCUGGAUCUCGGCGGGGAGCCGGGAGGGGUUGGGUGGCCCGGGAGGGCAACAGAGGAUUGAGCAUCA
B11: chr6:40197388:40197389:+_ENSMUSG00000057716_ENSMUST00000061740|mus_mus|mus_mus_mus_hu_False|78_98 (ssRNA)
RNA: GGGAGUUCUACAGUCCGACGAUCGAGACACUGGGGUGGAUGGCACCCACCUCUGUUUGCUAGCCUCCCACUAAGACUGUUAUUUUGGGAUUCAUGGCCUUGAAUAUCAAGAGGGAAAGGAAGAGGAUGGAAAGAGUCAAGAGUCAACAGAGGAUUGAGCAUCA
B12: chr10:126975481:126975482:-_ENSMUSG00000040249_ENSMUST00000049149|mus_mus|FALSE|FALSE (ssRNA)
RNA: GGGAGUUCUACAGUCCGACGAUCUUCAGCCCUAGGAGCCACAGAGGGGGCGCUAGAGAGGGGAGGGCCUGUCUGGAAGGGAUACUGAGCAUGGCCAUCUGAGAGGUGCCCCUGAAAGUGGGAGCUGGGGUUUGGGGUGACUUCCAACAGAGGAUUGAGCAUCA
B13: chr7:151048522:151048523:+_ENSG00000013374_ENST00000566856|hu_mus|hu_hu_hu_mus_True|1_108 (ssRNA)
RNA: GGGAGUUCUACAGUCCGACGAUCCUGCUUCUUAUUUAUUACGAUCUUGAUGUAAUUUUCUUGAAAUCCGAAAGUUUCAGCUAUUUGACACCUCAGGUCUCUACCAGUGACAUGCAAGCGGGUCUCCAACAAGCUUUUCCUAUCCAACAGAGGAUUGAGCAUCA
B14: 74685878_74685998_698_CDS_ENSG00000168411_ENST00000361070|human|control|control (ssRNA)
RNA: GGGAGUUCUACAGUCCGACGAUCGCUGUCACUGUCAGAAUCAGAACUACUAGACACCUGCAACUCUUCAGAUACAGGAUUCCUAGUCUCUGAAUCAUAAGUGGUAGCUGGCAAGUCAGGCUGGGUCCUGCUCACCUGAAAGUACAACAGAGGAUUGAGCAUCA
B15: chr5:37680062:37680063:+_ENSMUSG00000029121_ENSMUST00000031004|mus_hu|mus_mus_mus_hu_False|38_98 (ssRNA)
RNA: GGGAGUUCUACAGUCCGACGAUCUUUGGGUGUAGCUGGCACCUCGUACACAGGACCGUCAUACAUGCCCCUGGAAACCCCUUGCAAUCCAAAAACCUUGCUUCUGAUUUUGACGCGCUGGUACAGGUGCUCCGGGAACGCCUUCAACAGAGGAUUGAGCAUCA
B16: chr15:8067299:8067300:+_ENSMUSG00000022142_ENSMUST00000163765|mus_hu|FALSE|FALSE (ssRNA)
RNA: GGGAGUUCUACAGUCCGACGAUCAAUUCUGCCAUUAUCAGUGGAAGUUAUUGUUAAAAGGUAAGUAUUAUCAGUAGGAAGAGAAUAUAAAGGAUCUGGAAGCAACUGCAUUCCACCAGACAAACUAUCAUUAAGAACUCCAGACAACAGAGGAUUGAGCAUCA
B17: chr5:54693298:54693299:+_ENSG00000039123_ENST00000230640|hu_hu|motif|central (ssRNA)
RNA: GGGAGUUCUACAGUCCGACGAUCUUUUAAAACACUCUGUCUAUUGUCCACCGGCCGAAGGUCUUUAGGAAUGUAAAGCCGGACACUGCUGAUAGCAGACAGGAGAUGCACCAAAACUGGGACAACCUGCAUCUCUCCUUUCUCCAACAGAGGAUUGAGCAUCA
B18: chr8:117878989:117878990:-_ENSG00000164754_ENST00000297338|hu_hu|hu_hu_hu_mus_True|18_48 (ssRNA)
RNA: B10 RNA with C117U, G118U, A121G, G122C, U126C, U127G, G130U, U131G, G133C, C136G
B19: 64572114_64572234_1574_CDS_ENSG00000133895_ENST00000312049|human|control|control (ssRNA)
RNA: GGGAGUUCUACAGUCCGACGAUCCUGGCCGGUGCCCAGGCCCUUGUCCAGUGCUGGCUUCUUGGGCGGCGGGGGCUCCUCUGGCUUGGACUCCCGCCGUGGGCCCCGCCGCCGGCCUUCCCGGGCUUCCUCGCCCCACGGCUCCAACAGAGGAUUGAGCAUCA
B20: chr3:102850973:102850974:+_ENSMUSG00000068823_ENSMUST00000029446|mus_mus|motif|central (ssRNA)
RNA: GGGAGUUCUACAGUCCGACGAUCACGAUGAUCUGAAUGGGAAUGGAAUGAAACCGUGCCCUUGGGAAGUUUUUUAAUCCGGAUAGCAUGAUUUCUUUGGGCAGAGAGCAUAUCAGGAACCACAGUAAACUCUACUUCAUCUGCCAACAGAGGAUUGAGCAUCA
B21: chr7:140404665:140404666:+_ENSG00000090266_ENST00000247866|hu_hu|hu_hu_hu_mus_False|38_88 (ssRNA)
RNA: GGGAGUUCUACAGUCCGACGAUCUGCUCCUACUCGUCCAGAGAGUUUACACCUUCAGUCCUCGUCAUCAGGAGGGAUUCCCAGUUCUUCAUCUGUCCACUGGGAAGGAUCUGGAUAUGAAAAGUGACCCAGCACAGCAUCCGACAACAGAGGAUUGAGCAUCA
B22: chr15:43699750:43699751:-_ENSG00000067369_ENST00000382044|hu_mus|FALSE|FALSE (ssRNA)
RNA: GGGAGUUCUACAGUCCGACGAUCACACUUGAGCACCGAGGCUGGGCAUGAGGGGUCUGUCACCACCACAUCAAAUACCCCUAAAGCAAUGUCUUUGUUGUGGGCACUUGAAUGGUGCUGCUUCACAGAGGCUGCCCCUCCAGUCAACAGAGGAUUGAGCAUCA

Residue numbers refer to the chain shown, from its start. This is one part of the list.

The target of the assay is T1, UNK ZnF1-3 (human, UniProt Q9C0B0 31-174).
T1 sequence: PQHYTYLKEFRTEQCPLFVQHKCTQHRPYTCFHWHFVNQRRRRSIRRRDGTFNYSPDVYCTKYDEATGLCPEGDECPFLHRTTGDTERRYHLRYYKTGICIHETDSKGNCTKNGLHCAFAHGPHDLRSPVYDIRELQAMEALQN
Nature of the assay: nsRBNS (natural sequence RNA bind-n-seq); RBNS binding buffer (assumed for nsRBNS): 25 mM Tris pH 7.5, 150 mM KCl, 3 mM MgCl2, 0.01% Triton X-100, 500 ug/ml BSA, 20 U/ml SUPERase-In, 4 C; UNK is unkempt and MSI1 is Musashi-1; names of the RNAs are library labels; protein concentration not given here; high values mean tight binding.
Consider B1, for which the binding signal was 0.91 enrichment R.
In the case of B2 it was 2.28 enrichment R; in that of B3, 1.33 enrichment R; in that of B4, 2.43 enrichment R.
Molecule B5 had a binding signal of 1.07 enrichment R.
Next, B6: 0.824 enrichment R; B7: 1.04 enrichment R; B8: 1.14 enrichment R.
Next, B9: 2.02 enrichment R; B10: 1.42 enrichment R.
In the case of B11 it was 1.34 enrichment R.
The molecule B12 displayed a binding signal of 1.77 enrichment R.
In the case of B13, the binding signal came out at 0.838 enrichment R.
Regarding B14, the binding signal stood at 0.631 enrichment R.
Molecule B15 displayed a binding signal of 0.755 enrichment R.
In the case of B16 it was 1.42 enrichment R; in that of B17, 0.864 enrichment R; in that of B18, 1.39 enrichment R.
B19 had a binding signal of 1.79 enrichment R.
Next, B20: 1.24 enrichment R; B21: 1.56 enrichment R; B22: 0.903 enrichment R.

Values taken from article PMC12136788.
